Publication PMC6919601, “Identification of Plasmodium dipeptidyl aminopeptidase allosteric inhibitors by high throughput screening” (PLoS ONE, 2019)
Among all 110,000 compounds or so, about 230 (0.21%) showed an effect of 50% or more. The list shows a part of the results.

The molecules below were run against DPAP1 (Plasmodium falciparum, UniProt Q8IIJ9) (assay: primary screen, percent inhibition; read by cleavage of a fluorogenic dipeptide substrate; higher = more effect of the substance).
Parameters: species or system P. falciparum D10 trophozoite lysates; single well
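Further: 30 min substrate incubation versus DMSO and 10 µM JCP410 controls.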

Chain of DPAP1 (Q8IIJ9 whole entry, looked up): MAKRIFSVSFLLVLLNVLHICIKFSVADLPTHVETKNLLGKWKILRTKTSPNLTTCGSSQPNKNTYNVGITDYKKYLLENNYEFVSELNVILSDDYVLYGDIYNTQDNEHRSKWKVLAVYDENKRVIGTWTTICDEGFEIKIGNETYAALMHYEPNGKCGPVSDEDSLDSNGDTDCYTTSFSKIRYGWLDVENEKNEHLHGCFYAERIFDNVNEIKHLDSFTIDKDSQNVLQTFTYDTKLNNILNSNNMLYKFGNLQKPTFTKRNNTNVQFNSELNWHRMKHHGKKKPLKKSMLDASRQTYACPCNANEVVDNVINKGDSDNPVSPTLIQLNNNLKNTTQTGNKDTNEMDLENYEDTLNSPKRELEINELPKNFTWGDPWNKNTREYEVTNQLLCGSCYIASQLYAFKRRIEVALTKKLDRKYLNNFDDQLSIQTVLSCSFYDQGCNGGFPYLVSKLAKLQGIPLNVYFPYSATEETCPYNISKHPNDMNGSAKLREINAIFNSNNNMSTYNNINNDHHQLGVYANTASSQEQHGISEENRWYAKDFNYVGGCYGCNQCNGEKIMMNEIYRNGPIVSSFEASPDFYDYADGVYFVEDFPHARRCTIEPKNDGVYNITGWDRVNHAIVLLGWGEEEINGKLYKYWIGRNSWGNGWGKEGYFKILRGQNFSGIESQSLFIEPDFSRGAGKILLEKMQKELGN

SMILES | % Inhibition @ 10 uM [%]
N#C/C(=C/c1ccc(Cl)cc1)C(=O)Nc1ccc(Cl)cc1 | -2.2
CCOc1ccc(NC(=O)CN(c2ccc(C)cc2C)S(C)(=O)=O)cc1 | -3.78
CSc1nc2ccc(NC(=O)c3ccccc3F)cc2s1 | -4.6
CC(Nc1nc2nonc2nc1NC(C)c1ccccc1)c1ccccc1 (stereo not shown) | 14.4
CC(C)CN(CCCNC(=O)Cn1nc(-c2ccc(Cl)cc2)ccc1=O)CC(C)C | -3.58
CC(CN1CCCCCC1)C(=O)c1ccccc1 (stereo not shown) | 0.565
COc1ccc(-c2nc(C=C3C(=O)c4ccccc4C3=O)c3ccccn23)cc1 | -5.2
CCOc1ccc(/C=C(/C#N)c2nc(-c3ccc(Br)cc3)cs2)o1 | -2.03
CCOc1ccccc1-c1cc(C(=O)Nc2ccc(NC(C)=O)cc2)c2ccccc2n1 | 1.34
O=C(CSc1nc2ccccc2n2cnnc12)NCCc1ccccc1 | -1.68
CCOc1ccc2ncc(S(=O)(=O)c3ccc(Cl)cc3)c(N3CCN(CC)CC3)c2c1 | -0.563
CCC(=O)N1C(C(=O)NCCCN(CC)CC)CSC12CCN(C)CC2 (stereo not shown) | 5.78
COc1cccc(C2CC(c3ccc(Cl)cc3OC(F)F)Nc3ncnn32)c1OC (stereo not shown) | 0.219
CC1C/C(=C\c2ccc3nccnc3c2)C(=O)/C(=C/c2ccc3nccnc3c2)C1 (stereo not shown) | 20.9
CCO/C(O)=C1\C(C)=NC2=C(C(=O)CCC2)C1c1cccc(O)c1 (stereo not shown) | 1.26
CCN(CC)CCNCc1c(C(=O)O)n(Cc2ccccc2Cl)c2ccccc12 | 5.09
C#CCOc1nc(OCC#C)nc(N2CCN(C)CC2)n1 | -1.15
C/C(=C(/NC(=O)c1ccccc1)C(=O)NC1CCCCC1)c1ccccc1 | -0.988
N#Cc1cc2c(N)c(C(=O)Nc3ccccc3Br)sc2nc1N | 0.661
COCc1nc2cc(C)ccc2[nH]1 | 1.12
COc1cccc(NC(=O)CNS(=O)(=O)c2ccc(Br)cc2)c1 | 8.82
COc1ccccc1NC(=O)CN(Cc1ccc(Cl)cc1)S(=O)(=O)c1ccc(C)cc1 | -3.39

SMILES | % Inhibition @ 10 uM [%]
Cc1nc(SCC(=O)NC(C)c2ccccc2)[nH]c1CC(C)C (stereo not shown) | -3.75
CN(C)CCSC1c2ccccc2CSc2ccccc21 (stereo not shown) | -4.76
Cn1c(N)c(Sc2nnnn2-c2ccccc2)c(=O)[nH]c1=O | 1.72
CCc1ccc(CN2C(=O)c3ccccc3C2C(=O)NCCc2ccccc2)cc1 (stereo not shown) | 8.4
Cc1ccc(N2C(=O)c3ccccc3NC23C(=O)Nc2ccccc23)cc1 (stereo not shown) | 6.98
CCc1c(C#N)c(SCCC(=O)NCc2ccc3c(c2)OCO3)nc2c1C(=O)CC(C)(C)C2 | -3.9
CNS(=O)(=O)c1cnccc1N1CCN(c2cccc(Cl)c2)CC1 | -1.59
COc1ccc(CN2CCN(C(=O)c3ccc(-n4cnc5cccnc54)cc3)CC2)c(OC)c1OC | -5.35
Cc1ccc2c(CN3CCN(C(=O)c4ccccc4)CC3)cc(=O)oc2c1 | 0.635
CC1CC(C)CN(c2c(-c3ccccc3)c(=O)c2=O)C1 (stereo not shown) | -1.98
CCOC(=O)N1CCC(N2CCc3c([nH]c4ccccc34)C2)CC1 | -3.6
Cn1c(=O)c2c(ncn2CC(=O)NCCc2ccc(F)cc2)n(C)c1=O | 3.72
COc1cccc2c1cc1c(O)nnc(C)n12 | 0.0882
CC(=O)CC(=O)Nc1ccc(Cl)cc1[N+](=O)[O-] | 4.34
c1ccc(CCCN2CCOCC2)cc1 | -1.78
OCC1CCCN1Cc1cccc(Cl)c1 (stereo not shown) | -4.14
C#CCOC(=O)c1ccc(S(=O)(=O)N2CCOCC2)cc1 | 13
O=C1C(=O)N(C(=O)Nc2cccc3ccccc23)c2ccc(Br)cc21 | -0.415
COc1ccccc1N1CCN(C(=O)CN(c2ccc(C)cc2)S(=O)(=O)c2ccc(C)cc2)CC1 | -4.91
CCOCCCNC(=O)C(C)n1nc(C)c2sc3ccccc3c2c1=O (stereo not shown) | 2.95
COc1ccc(N2C(=O)C3CC(C)=C(C)CC3C2=O)c(OC)c1 (stereo not shown) | 0.983
CC(C)CNC(=O)C1CC(c2ccc(F)cc2)=NO1 (stereo not shown) | -2.16

SMILES | % Inhibition @ 10 uM [%]
Cc1ccc(NC(=O)c2ccccc2Cl)cc1O | 0.907
O=C1NC(=O)N(C2CCCCC2)C(=O)/C1=C\c1c[nH]c2ccccc12 | -5.01
CCN(Cc1cc2cc(C)ccc2nc1O)S(=O)(=O)c1ccc(C)cc1 | -0.671
Cc1cccc(C(=O)Nc2ccc(C)cc2C)c1 | -1.22
CCc1ccc(S(=O)(=O)Nc2ccc(O)cc2)cc1 | 5.43
COc1cccc(C2/C(=C(\O)OCCC(C)C)C(C)=Nc3nnnn32)c1OC (stereo not shown) | 3.27
COC(=O)/C(=C1/Oc2cc3c(cc2S1)OCO3)C(F)(F)F | 0.146
COc1ccc(Cl)cc1NC(=O)c1cccnc1 | 2.22
Cc1ccc(-c2nnn3c2nc(NCCC(C)C)c2ccccc23)cc1 | -8.42
O=C(O)CN1CC(c2ccccc2)CC1=O (stereo not shown) | -6.11
CCOC(=O)c1c(S(=O)(=O)N(CCOC)Cc2cccs2)c(C)n(C)c1C | 0.399
CC(C)(C)OC[C@H](NC(=O)c1ccccc1)C(=O)NCC#N | -1.83
CCN1CCN(C(CNS(=O)(=O)c2ccc(C)cc2)c2ccccc2)CC1 (stereo not shown) | -4.42
Oc1nc(-c2ccccn2)nc2c1Cc1cc(F)ccc1O2 | 0.655
COc1cccc(-c2cc(C(=O)Nc3cnn(Cc4ccc(F)cc4)c3)no2)c1 | -4.07
Cc1cc(C(=O)O)sc1CNCC(C)c1ccccc1 (stereo not shown) | -2.37
COCCNC(=O)c1cnn(-c2ccc(OC)cc2)c1C1CCN(C(=O)OC(C)(C)C)CC1 | -1.07
C=CCN(CC=C)C(=O)c1c(OC)cccc1OC | 4.07
CC(C)N(Cc1nc(-c2ccc(Cl)cc2)no1)C(=O)c1ccc(F)cc1 | -0.942
Cc1nn(Cc2ccc(C(=O)Nc3cccc(S(=O)(=O)N4CCOCC4)c3)o2)c(C)c1Cl | -3.49
